# In PubChem BioAssay AID504333 (National Center for Advancing Translational Sciences (NCATS), 2011):
# In all, about 360,000 compounds went through this assay and about 16,000 (4.4%) were called active. The inconclusive results got no clear call from the source; some entries with a clear call stand among them for comparison. The call rests on the fitted dose curve; in most records, active means well fitted inhibition curve with a large enough effect; inconclusive means small, poorly fitted or top-dose-only effect; inactive means no such curve, though single readings can be large or run the other way. Potencies of inconclusive entries are doubtful fits and often do not repeat.
# Molecular target: Bromodomain adjacent to zinc finger domain protein 2B (Homo sapiens) (UniProt Q9UIF8)
# Assay: qHTS Assay for Inhibitors of BAZ2B; further: nearly all actives have a fitted effect of over 60% in size
# Settings: AlphaScreen BAZ2B-H3K14Ac peptide displacement; activity change, negative = inhibition: at 114 µM (top of the series) unless noted
# Procedure, shortened: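 AlphaScreen luminescence quantifies BAZ2B engagement of H3K14Ac peptide; the protein and biotinylated peptide are both at 50 nM final, buffer PBS pH 7.4 with 0.01% Tween-20, all steps at room temperature.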
# On the % scale 0 is the no-effect control and ±100 the full control effect; potency means the concentration at half of the fitted maximal effect; tags describe the fitted curve by direction and shape.
# UniProt Q9UIF8, sequence (Q9UIF8 whole entry, looked up, the tested form may be a part): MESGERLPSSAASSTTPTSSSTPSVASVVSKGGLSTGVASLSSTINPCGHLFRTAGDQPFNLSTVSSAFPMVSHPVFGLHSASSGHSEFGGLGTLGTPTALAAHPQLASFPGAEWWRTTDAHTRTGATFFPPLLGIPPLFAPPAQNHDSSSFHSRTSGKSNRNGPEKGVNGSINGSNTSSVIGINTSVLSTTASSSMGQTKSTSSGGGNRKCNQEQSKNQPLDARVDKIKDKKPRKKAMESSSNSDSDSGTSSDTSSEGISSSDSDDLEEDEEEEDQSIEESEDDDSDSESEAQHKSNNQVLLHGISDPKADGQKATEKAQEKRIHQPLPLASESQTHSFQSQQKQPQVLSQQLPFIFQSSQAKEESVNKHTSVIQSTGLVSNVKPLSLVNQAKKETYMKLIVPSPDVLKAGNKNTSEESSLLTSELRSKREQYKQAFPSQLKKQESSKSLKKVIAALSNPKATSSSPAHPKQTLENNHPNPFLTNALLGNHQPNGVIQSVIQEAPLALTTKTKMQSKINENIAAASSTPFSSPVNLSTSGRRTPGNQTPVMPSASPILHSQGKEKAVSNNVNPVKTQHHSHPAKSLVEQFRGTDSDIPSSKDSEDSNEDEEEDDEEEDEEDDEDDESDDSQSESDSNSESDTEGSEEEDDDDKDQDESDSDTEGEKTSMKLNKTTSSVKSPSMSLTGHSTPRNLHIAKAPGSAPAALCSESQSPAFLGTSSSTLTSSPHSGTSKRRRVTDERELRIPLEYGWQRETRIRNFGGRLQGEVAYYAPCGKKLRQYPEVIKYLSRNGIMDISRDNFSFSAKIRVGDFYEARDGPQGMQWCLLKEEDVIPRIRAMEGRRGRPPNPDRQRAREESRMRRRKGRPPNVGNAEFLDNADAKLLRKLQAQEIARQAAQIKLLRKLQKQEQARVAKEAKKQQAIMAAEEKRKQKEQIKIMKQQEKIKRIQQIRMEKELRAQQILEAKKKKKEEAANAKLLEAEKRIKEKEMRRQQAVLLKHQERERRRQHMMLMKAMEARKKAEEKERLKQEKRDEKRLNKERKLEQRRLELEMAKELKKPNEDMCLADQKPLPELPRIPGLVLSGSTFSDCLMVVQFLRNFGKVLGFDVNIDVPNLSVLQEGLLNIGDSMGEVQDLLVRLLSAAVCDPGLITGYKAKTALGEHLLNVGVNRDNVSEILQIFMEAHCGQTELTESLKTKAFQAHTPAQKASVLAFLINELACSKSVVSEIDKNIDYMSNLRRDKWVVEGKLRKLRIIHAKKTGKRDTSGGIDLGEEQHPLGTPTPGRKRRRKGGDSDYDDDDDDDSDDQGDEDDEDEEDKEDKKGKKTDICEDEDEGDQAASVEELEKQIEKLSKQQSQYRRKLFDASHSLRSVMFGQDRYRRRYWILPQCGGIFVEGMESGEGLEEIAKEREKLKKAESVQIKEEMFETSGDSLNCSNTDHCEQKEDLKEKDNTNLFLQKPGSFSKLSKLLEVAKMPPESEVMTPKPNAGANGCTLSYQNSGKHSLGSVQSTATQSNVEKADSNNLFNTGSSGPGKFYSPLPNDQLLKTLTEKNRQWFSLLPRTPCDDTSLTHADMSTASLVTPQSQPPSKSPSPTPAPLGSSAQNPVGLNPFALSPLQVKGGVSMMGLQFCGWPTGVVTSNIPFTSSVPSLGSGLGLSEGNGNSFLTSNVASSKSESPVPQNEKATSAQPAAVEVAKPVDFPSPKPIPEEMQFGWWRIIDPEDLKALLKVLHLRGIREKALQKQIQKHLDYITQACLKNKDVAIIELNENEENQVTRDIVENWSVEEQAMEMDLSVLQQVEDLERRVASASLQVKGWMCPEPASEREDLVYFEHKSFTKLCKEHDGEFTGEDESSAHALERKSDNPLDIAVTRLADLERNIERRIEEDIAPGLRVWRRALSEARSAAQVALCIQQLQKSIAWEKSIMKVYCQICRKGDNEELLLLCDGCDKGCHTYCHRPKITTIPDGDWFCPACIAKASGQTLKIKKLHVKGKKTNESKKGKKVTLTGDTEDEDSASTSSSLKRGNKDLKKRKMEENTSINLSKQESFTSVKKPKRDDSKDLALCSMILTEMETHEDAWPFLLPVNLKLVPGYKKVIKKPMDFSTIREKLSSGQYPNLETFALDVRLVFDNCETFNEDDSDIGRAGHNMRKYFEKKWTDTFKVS
Structure (SMILES),Potency,"activity change, negative = inhibition"
COc1ccc(NC(c2ccc(F)cc2)c2nnc(-c3ccccc3Cl)o2)cc1Cl (stereo unspecified),"inconclusive: 20 µM [inhibitor, full curve]",–
CC(C)(C)NC(=O)C(c1ccncc1)N(Cc1cccs1)C(=O)c1csnn1 (stereo unspecified),–,inactive: -11.9%
Cc1ccc(C)c(-c2csc(-c3c(N)c(C(=O)c4ccc5c(c4)OCO5)n4ccccc34)n2)c1,–,inactive: 8.74%
CCc1ccc(NC(=O)CSc2nccn2C2CCCC2)cc1,"inconclusive: 50.1 µM [inhibitor, partial curve, poor fit]",–
CCCCNC1c2ccccc2C(=O)N1Cc1ccccc1 (stereo unspecified),–,inactive: -4.24%
Cc1cc(=O)n(CC(=O)NCCC(C)C)c2c1c(C)nn2C,–,inactive: -0.564%
CCC(C)NCCOc1ccccc1C (stereo unspecified),active: 50.1 µM,–
c1ccc2c(c1)NCC1CCCN21 (stereo unspecified),active: 44.7 µM,–
COc1ccc(CN2C(=O)c3cccc4cccc2c34)cc1F,"inconclusive: 100 µM [inhibitor, single point]",–
Cc1ccc(OCCn2c(=O)cnc3ccccc32)cc1,–,inactive: 3.56%
CC(=O)c1cccc(Nc2nc(-c3ccccc3)cs2)c1,"inconclusive: 89.1 µM [inhibitor, single point]",–
CC1=CC2CC1C1C(=O)N(c3ccc(S(=O)(=O)Nc4nc(C)cc(C)n4)cc3)C(=O)C21 (stereo unspecified),–,inactive: -7.37%
O=[N+]([O-])c1ccc(COc2ccc(Br)cc2CN2CCOCC2)cc1,"inconclusive: 44.7 µM [inhibitor, partial curve]",–
CN1N=C(C(=O)N2CCc3c([nH]c4ccccc34)C2c2c(F)cccc2Cl)CCC1=O (stereo unspecified),"inconclusive: 44.7 µM [inhibitor, partial curve]",–
C/C(=N\N=C(/N)SC1CC(=O)N(c2ccc(Cl)cc2)C1=O)c1cccs1 (stereo unspecified),"inconclusive: 79.4 µM [inhibitor, single point]",–
Cc1cc(C)cc(NS(=O)(=O)c2ccc3c(c2)C(C)(C)C(=O)N3C)c1,"inconclusive: 89.1 µM [inhibitor, single point]",–
COc1ccc([C@H]2CC(=O)C=C(c3cccc(C#N)c3)C2)cc1,"inconclusive: 89.1 µM [inhibitor, single point]",–
Cc1c(Cl)cccc1NC(=O)c1ccc2nc(C(C)C)oc2c1,–,inactive: 2.58%
CC(Sc1cnccn1)C(=O)O (stereo unspecified),"inconclusive: 89.1 µM [inhibitor, single point]",–
CC(=O)Nc1ccc(S(=O)(=O)Nc2nc3ccccc3nc2Nc2ccc(N)cc2)cc1,"inconclusive: 56.2 µM [inhibitor, partial curve]",–
CC1NC(=O)NC1CCCCCC(=O)NCCc1ccccc1 (stereo unspecified),active: 0.891 µM,–
CC(=S)c1c(C)cc2cc(C)ccn12,active: 10 µM,–
Cc1noc(NS(=O)(=O)c2ccc(NC(=O)c3ccc(Br)cc3)cc2)c1C,–,inactive: -6.01%

Structure (SMILES),Potency,"activity change, negative = inhibition"
CN(C)c1cc(NC(=O)CN2CCOCC2)c2ccccc2n1,"inconclusive: 89.1 µM [inhibitor, partial curve]",–
Cc1cc(C)cc(NC(=S)/C(=C(\[O-])c2ccc(Cl)s2)[n+]2cccc(C)c2)c1,active: 39.8 µM,–
CCOc1cc(C2C(C(=O)c3ccco3)=C(O)C(=O)N2Cc2ccccc2)ccc1O (stereo unspecified),"inconclusive: 79.4 µM [inhibitor, single point]",–
Cn1c(CC(=O)Nc2ccccc2Cl)nnc1SCC(=O)NC1=NCCS1,"inconclusive: 89.1 µM [inhibitor, single point]",–
O=C(CCCOc1ccccc1)N1CCCc2ccccc21,"inconclusive: 100 µM [inhibitor, single point]",–
COc1cccc(=O)c2c(C)n(-c3ccc(C(=O)O)cc3)c(C)c12,"inconclusive: 56.2 µM [inhibitor, partial curve, poor fit]",–
O=C(OCC(=O)N1CCN(c2ccccc2)CC1)c1nc(Cl)ccc1Cl,–,inactive: 3.48%
O=C(N[C@@H](Cc1ccc(Br)cc1)C(=O)O)OCC1c2ccccc2-c2ccccc21,"inconclusive: 89.1 µM [inhibitor, single point]",–
COCCOC(=O)c1sc(=S)n(CCOC)c1N,"inconclusive: 50.1 µM [inhibitor, single point]",–
C=CCn1c(C)cc(C(=O)CSc2nc3ccccc3[nH]2)c1C,"inconclusive: 50.1 µM [inhibitor, partial curve]",–
COc1ccc(CCC(=O)OCC(=O)c2c(N)n(CC(C)C)c(=O)n(C)c2=O)cc1,"inconclusive: 89.1 µM [inhibitor, single point]",–
COc1ccc(Cn2c(C)ccc2C)cc1,"inconclusive: 15.8 µM [inhibitor, full curve]",–
Cc1ccc(NC(=O)Cn2c(=O)oc3cc(S(=O)(=O)N4CCC(C)CC4)ccc32)cc1Cl,"inconclusive: 89.1 µM [inhibitor, single point]",–
O=C(COc1ccccc1C(=O)N/N=C\c1ccc(O)c(O)c1)N/N=C/c1ccc(O)c(O)c1,active: 1.58 µM,–
CCOc1ccc(NS(=O)(=O)c2ccc(C)c(C(=O)NCCCn3ccnc3)c2)cc1,–,inactive: -36.2%
c1ccc2oc(C3=NNC(=NC4CC4)SC3)cc2c1,"inconclusive: 44.7 µM [inhibitor, partial curve]",–
CN(C)S(=O)(=O)c1cccc(NC(=O)COC(=O)c2cccc(S(=O)(=O)N3CCc4ccccc4C3)c2)c1,"inconclusive: 89.1 µM [inhibitor, single point]",–
Cc1[nH]n(C(N)=S)c(=O)c1N=Nc1ccc(S(=O)(=O)N2CCCCCC2)cc1,"inconclusive: 35.5 µM [inhibitor, full curve]",–
CCc1nc2ccccc2c(=O)n1NC(=O)c1c(O)c2ccccc2n(CC)c1=O,–,inactive: -0.09%
CN(C(=O)COC(=O)c1cc(-c2ccco2)nc2ccccc12)C1CCS(=O)(=O)C1 (stereo unspecified),active: 39.8 µM,–
O=C(CSc1nnc(COc2ccccc2Cl)o1)NC(=O)NCc1ccco1,active: 39.8 µM,–
CC(C)(C)c1ccc(-c2nnc3sc(-c4ccccn4)nn23)cc1,"inconclusive: 89.1 µM [inhibitor, single point]",–
Cc1cc(Cl)c(S(=O)(=O)N2CCSCC2)cc1OCC(=O)NC1CCCCC1,"inconclusive: 15.8 µM [inhibitor, single point]",–
